Source: article PMC13189620, “Twelve phosphomimetic mutations induce the assembly of recombinant full-length human tau into paired helical filaments” (eLife, 2026)

Biological target: the molecule itself
Assay: cryo-EM structure; in vitro assembly, 50 µM, 100 mM potassium phosphate, 4 mM TCEP, 500 rpm, 3.17 days

B1: tau[…] Δ392–395 (domain or fragment)
chain: not shown
notes: source: E. coli BL21-CodonPlus (DE3)-RIPL, purified (cation exchange, ammonium sulphate precipitation, SEC)
  binding result: binds
